Source: paper PMC4336329 (PLoS ONE, 2015)
Among all 310,000 compounds or so, about 2,200 (0.71%) showed an effect of 50% or more. Effects have a minus sign here. The list shows a part of the results.

Target: human ether-à-go-go-related gene (hERG) potassium channel (human, UniProt Q12809)
Assay: primary screen, population patch clamp on CHO cells stably expressing hERG

human ether-à-go-go-related gene (hERG) potassium channel, sequence (Q12809 whole entry, looked up): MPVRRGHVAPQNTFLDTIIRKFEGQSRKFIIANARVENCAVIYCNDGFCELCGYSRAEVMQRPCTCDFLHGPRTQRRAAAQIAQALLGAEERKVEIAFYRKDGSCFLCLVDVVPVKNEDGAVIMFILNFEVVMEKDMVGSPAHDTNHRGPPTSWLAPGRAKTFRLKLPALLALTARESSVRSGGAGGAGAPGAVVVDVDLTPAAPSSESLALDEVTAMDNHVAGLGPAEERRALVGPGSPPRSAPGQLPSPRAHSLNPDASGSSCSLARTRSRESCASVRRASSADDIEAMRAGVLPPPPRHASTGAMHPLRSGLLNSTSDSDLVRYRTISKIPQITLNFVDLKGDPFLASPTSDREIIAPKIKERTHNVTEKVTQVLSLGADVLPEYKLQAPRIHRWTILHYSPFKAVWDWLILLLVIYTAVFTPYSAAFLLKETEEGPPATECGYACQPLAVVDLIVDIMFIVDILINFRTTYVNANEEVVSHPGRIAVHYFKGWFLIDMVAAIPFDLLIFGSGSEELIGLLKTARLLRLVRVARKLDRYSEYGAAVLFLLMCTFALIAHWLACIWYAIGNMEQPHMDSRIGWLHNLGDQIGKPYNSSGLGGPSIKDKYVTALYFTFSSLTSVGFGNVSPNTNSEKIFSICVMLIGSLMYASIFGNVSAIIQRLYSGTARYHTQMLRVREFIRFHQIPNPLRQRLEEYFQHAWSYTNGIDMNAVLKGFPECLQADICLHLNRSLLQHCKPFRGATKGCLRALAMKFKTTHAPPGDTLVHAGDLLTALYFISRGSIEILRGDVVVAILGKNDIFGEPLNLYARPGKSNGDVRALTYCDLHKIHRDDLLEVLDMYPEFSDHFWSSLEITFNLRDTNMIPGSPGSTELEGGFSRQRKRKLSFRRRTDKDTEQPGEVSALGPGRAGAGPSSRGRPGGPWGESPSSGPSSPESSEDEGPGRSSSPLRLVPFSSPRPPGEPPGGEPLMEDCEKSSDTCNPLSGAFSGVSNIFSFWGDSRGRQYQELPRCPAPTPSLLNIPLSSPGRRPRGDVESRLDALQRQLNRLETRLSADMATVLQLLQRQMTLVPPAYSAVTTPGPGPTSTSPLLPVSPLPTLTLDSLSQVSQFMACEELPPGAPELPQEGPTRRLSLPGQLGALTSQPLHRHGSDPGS

Row | SMILES | hERG current change (%, negative = inhibition) at 1uM
1 | C=CCNC(=S)NN=C1CCC(c2ccccc2)CC1 (centres unmarked) | 13.1%
2 | O=C(NCc1ccccn1)C(=O)NCC1OCCN1S(=O)(=O)c1ccc(F)cc1 (centres unmarked) | 8.4%
3 | CCN(CC)c1ccc(/C=N/NC(=O)CNC(=O)c2ccc3c(c2)OCCO3)cc1 | 12.7%
4 | COc1ccc(C(=O)CCC(=O)N2CCN(c3ccc([N+](=O)[O-])cc3)CC2)cc1 | -28.4%
5 | Cc1sc(NC(=O)C2C3CCC(O3)C2C(=O)O)nc1-c1ccc(CC(C)C)cc1 (centres unmarked) | 3.75%
6 | COc1ccc(C2c3c(ccc4ccccc34)Oc3ncn4nc(-c5ccco5)nc4c32)cc1 (centres unmarked) | 4.06%
7 | COc1ccc(Cn2nnnc2CN2CCOCC2)cc1 | -4.33%
8 | Cc1ccc(CNC(=O)c2nn(C)c(C)c2[N+](=O)[O-])cc1 | 5.74%
9 | CN(CC(=O)Nc1cc(S(=O)(=O)N2CCCCCC2)ccc1Cl)Cc1ccc2c(c1)OCO2 | 15.5%
10 | O=C(CSc1nnc(CNC(=O)c2cccc(C(F)(F)F)c2)o1)NCc1ccco1 | 10.4%
11 | COc1ccc(/C=N/n2cnnc2SCCO)cc1OC | 7.32%
12 | CN(C)CCC(=O)c1ccc2c(c1)OCO2.Cl | 16.3%
13 | COc1ccc(CN2CCNC(=O)C2CC(=O)N(C)Cc2ccon2)c(OC)c1 (centres unmarked) | 8.87%
14 | CC1CCCCN1C(=O)CN1CCN(S(=O)(=O)c2ccc(Br)cc2Cl)CC1 (centres unmarked) | -2.79%
15 | COCCNC(=O)C1CC(=O)N(c2ccc(F)c(Cl)c2)C1 (centres unmarked) | 7.08%
16 | COc1ccccc1/C=C/C(=O)NNC(=O)c1cccs1 | 11.1%
17 | Cc1cc(C(F)(F)F)nc(SCC(=O)NC2CC3CCC2C3)n1 (centres unmarked) | -2.17%
18 | CC(Oc1ccc(Cl)cc1Cl)C(=O)NNC(=O)C(=O)N1CCCCC1 (centres unmarked) | 6.63%
19 | COC1CC(OC2CCC3(C)C(CCC4C3CCC3(C)C(C5=CC(=O)OC5)C(OC(C)=O)CC43O)C2)OC(C)C1OC1OC(COC2OC(CO)C(O)C(O)C2O)C(O)C(O)C1O (centres unmarked) | 13.8%

Row | SMILES | hERG current change (%, negative = inhibition) at 1uM
20 | COc1ccc(SCCc2nnc(-c3ccccc3)o2)cc1 | 13.9%
21 | O=C(NCC(c1ccco1)N1CCN(c2ccccc2F)CC1)C(=O)NC1CCCC1 (centres unmarked) | 5.22%
22 | O=C1CCCC(=O)N1c1ccc(N2CCOCC2)c([N+](=O)[O-])c1 | 10.5%
23 | O=C(NCC(c1cccnc1)N1CCN(c2ccccc2F)CC1)Oc1ccccc1 (centres unmarked) | 9.57%
24 | COc1ccc(C(=O)NC(=S)NNC(=O)c2cnccn2)cc1OC | 8.33%
25 | CCOCCCN1CC(C(=O)NCCc2ccc(C)cc2)CC1=O (centres unmarked) | 4.18%
26 | CCOC(=O)c1c(C)[nH]c(C)c1C(=O)COC(=O)/C=C/c1ccco1 | 5.79%
27 | CC1=Nc2ccccc2NC(=O)C1Sc1nnc(C)s1 (centres unmarked) | 2.65%
28 | CCNS(=O)(=O)c1ccc(NC(=O)c2ccccc2)cc1 | -9.02%
29 | COC(=O)CC1C(=O)NCCN1C(=S)Nc1ccc(F)cc1 (centres unmarked) | 11.4%
30 | Cn1c2ccccc2c(=O)c2ccc(-c3ccc4c(c3)OCO4)cc21 | 11.5%
31 | CCn1c(C)c(C(C)=O)c(N2CCN(C(c3ccccc3)c3ccccc3)CC2)nc1=S | 6.03%
32 | CC(=O)NC12CC3CC(C1)CC(C(=O)NCc1ccc(C)cc1)(C3)C2 | 14%
33 | COc1ccc(CCNC(=O)CSCC(=O)Nc2ccccc2)cc1OC | 16.9%
34 | CCCCOC(=O)c1ccc(NC(=S)NC(=O)c2c(Cl)cnn2C)cc1 | 8.7%
35 | CSCCC(NC(=O)c1ccc(Cl)cc1Cl)C(=O)NNC(=O)c1ccncc1 (centres unmarked) | 4.03%
36 | COC(=O)CCCCC1SCC(NC(=O)c2ccccc2)C1=O (centres unmarked) | -0.542%
37 | COc1ccc(-c2ocnc2C(=O)N2CCN(Cc3cccnc3)CC2)cc1 | 14.3%
38 | Cn1cccc1C(=O)OCc1ccc(F)cc1 | 9.18%

Row | SMILES | hERG current change (%, negative = inhibition) at 1uM
39 | CCOc1ccc(Cl)cc1S(=O)(=O)N1CCN(c2ccc(C)c(C)c2)CC1 | 1.54%
40 | CCOc1ccc(Cl)cc1CNCCNCCO.Cl | 19.9%
41 | O=C(c1cccs1)C1C(c2ccc(Br)cc2)NC(=S)NC1(O)C(F)(F)F (centres unmarked) | -2.57%
42 | CCCn1c(=O)c(C(=O)Nc2ccccc2C(=O)OCC)c(O)c2ccccc21 | 16.2%
43 | C=CCn1c(SCC(=O)N2CCOCC2)nnc1C(C)NC(=O)c1ccccc1 (centres unmarked) | 13.4%
44 | CN(/N=C/C=C/c1ccccc1)c1cc(=O)n(C)c(=O)[nH]1 | -1.83%
45 | Cc1ccc(S(=O)(=O)NC(=O)c2cccn2C)cc1 | 13.6%
46 | C=COCCn1c(=N)n(CCC)c2ccccc21.Cl | -9.91%
47 | COc1ccc(CCN=C(N)NS(=O)(=O)c2cc(F)ccc2F)cc1 | -10.2%
48 | O=C(c1cn(-c2ccccc2)nc1-c1cccs1)N1CCN(c2ccccn2)CC1 | 4.93%
49 | Cc1cc(N2CCCCC2)nc(N)n1 | -1.75%
50 | O=C(COC(=O)c1cc(S(=O)(=O)N2CCc3ccccc3C2)ccc1Cl)NCc1ccco1 | 6.96%
51 | Cc1ccc(NC(=O)Cn2c(=O)c3cccn3c3ccccc32)c(Cl)c1 | 17.7%
52 | Cc1ccc(C)c(OC(=O)c2cccnc2)c1 | 14.1%
53 | CCOc1ccc(S(=O)(=O)Nc2ccc(C(=O)N/N=C/c3c(C)nn(-c4ccccc4)c3N3CCCC3)cc2)cc1 | 10.7%
54 | N#Cc1ccccc1CSCCNC(=O)Cc1c(F)cccc1Cl | 14.4%
55 | CCOC(=O)CSc1nc2c(sc3ccc([N+](=O)[O-])cc32)c(=O)n1Cc1ccco1 | 10.1%
56 | COC(=O)C1CCN(Cc2cc(=O)oc3cc(OC)ccc23)CC1 | -1.21%
